The other results are listed elsewhere or left out. The energies were worked out here from pooled read counts, against the library average; single values are noisy.

This test has as its target T1, Pho4 (S. cerevisiae) (UniProt P07270).
T1 sequence: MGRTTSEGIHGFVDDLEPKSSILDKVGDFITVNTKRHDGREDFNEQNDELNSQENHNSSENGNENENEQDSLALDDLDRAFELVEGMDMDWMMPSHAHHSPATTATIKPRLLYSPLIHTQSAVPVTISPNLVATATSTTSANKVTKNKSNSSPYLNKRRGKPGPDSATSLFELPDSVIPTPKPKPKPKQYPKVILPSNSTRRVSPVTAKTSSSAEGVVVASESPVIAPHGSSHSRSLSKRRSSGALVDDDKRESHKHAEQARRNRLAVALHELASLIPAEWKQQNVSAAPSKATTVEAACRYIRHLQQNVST
The experiment in a line: relative binding free energy (BET-seq); higher = weaker binding. The conditions noted are these: reference: library average.
With TTCAACACGTGTTTAG, the “relative binding free energy” value turned out to be 0.02 kcal/mol.

In the case of TATGGCACGTGGTTGC, the “relative binding free energy” value is -0.16 kcal/mol.

Take TTGGTCACGTGGGAAC: the “relative binding free energy” value is 0.11 kcal/mol.

Regarding GGCGACACGTGGTGTG, the “relative binding free energy” value came out at 0.02 kcal/mol.

With TGGCGCACGTGTTCGT, the “relative binding free energy” value amounted to 0.01 kcal/mol.

Regarding ATCGGCACGTGTGGGT, the “relative binding free energy” value is -0.01 kcal/mol.

GTCGGCACGTGCGGAT: the “relative binding free energy” value amounted to 0.02 kcal/mol.

With ATGGGCACGTGGGTTT, the “relative binding free energy” value is -0.12 kcal/mol.

On to TGGAGCACGTGGTGGC, for which the “relative binding free energy” value was -0.03 kcal/mol.

For the sequence GGGTCCACGTGGTGTT, the “relative binding free energy” value is 0 kcal/mol.

Turning to TTTGCCACGTGTAGGG, the “relative binding free energy” value came to 0 kcal/mol.

TTCAGCACGTGCTGTG: the “relative binding free energy” value is -0.02 kcal/mol.

For GGAATCACGTGATATG, the “relative binding free energy” value came to 0.27 kcal/mol.

With TGGATCACGTGAGAGT, the “relative binding free energy” value turned out to be 0.45 kcal/mol.

Regarding CTGGGCACGTGTTCGT, the “relative binding free energy” value was -0.01 kcal/mol.

Take AGGTTCACGTGGGGTG: the “relative binding free energy” value is 0.23 kcal/mol.

As to GCGGTCACGTGTGTGC, the “relative binding free energy” value is 0.06 kcal/mol.

Turning to GGTGGCACGTGACTCG, the “relative binding free energy” value came out at 0.11 kcal/mol.

For the sequence TTTACCACGTGTAAGT, the “relative binding free energy” value worked out at 0.05 kcal/mol.

On to TGGAGCACGTGGTTAA, for which the “relative binding free energy” value was -0.11 kcal/mol.

In the case of TTGTACACGTGTTACT, the “relative binding free energy” value was -0.09 kcal/mol.

Consider TTACGCACGTGGTGGT, for which the “relative binding free energy” value is -0.22 kcal/mol.

Consider CAGGTCACGTGGTGGG, for which the “relative binding free energy” value was -0.01 kcal/mol.

As for ATGTTCACGTGAGCGG, the “relative binding free energy” value worked out at 0.4 kcal/mol.

Turning to GGAGTCACGTGTGTTC, the “relative binding free energy” value stood at 0.18 kcal/mol.

Consider CTATCCACGTGTGGGT, for which the “relative binding free energy” value was determined as 0 kcal/mol.

On to TATTGCACGTGAGTTT, for which the “relative binding free energy” value was found to be 0.29 kcal/mol.

As for GCTTTCACGTGTTAGT, the “relative binding free energy” value turned out to be 0.29 kcal/mol.

With TAAATCACGTGCGTTT, the “relative binding free energy” value amounted to 0.09 kcal/mol.

Take TTATACACGTGAGGAT: the “relative binding free energy” value is 0.22 kcal/mol.

For the sequence ATAGACACGTGGGCTG, the “relative binding free energy” value was -0.18 kcal/mol.

As for TCAAGCACGTGGTTTA, the “relative binding free energy” value is -0.12 kcal/mol.

As for GGTTGCACGTGAGGTA, the “relative binding free energy” value is 0.34 kcal/mol.

In the case of TTTCTCACGTGTATAG, the “relative binding free energy” value worked out at 0.34 kcal/mol.

As for CGGATCACGTGTAGTA, the “relative binding free energy” value turned out to be 0.29 kcal/mol.

Take CGGAGCACGTGGGCGG: the “relative binding free energy” value is -0.25 kcal/mol.

Consider AACGTCACGTGTAGTT, for which the “relative binding free energy” value came to 0.17 kcal/mol.

Take GAGTACACGTGTGTAG: the “relative binding free energy” value worked out at 0.13 kcal/mol.

For the sequence TAGTCCACGTGTAGGA, the “relative binding free energy” value turned out to be 0.1 kcal/mol.

Take AATAGCACGTGGGGAT: the “relative binding free energy” value is -0.09 kcal/mol.

As to TGGGGCACGTGGTTGT, the “relative binding free energy” value is -0.14 kcal/mol.

Turning to ATTCACACGTGTTGAT, the “relative binding free energy” value was 0.03 kcal/mol.

With GAGTACACGTGGTTCG, the “relative binding free energy” value was 0.13 kcal/mol.

In the case of ATGGTCACGTGGCGGA, the “relative binding free energy” value was determined as 0.03 kcal/mol.

Take TATTACACGTGGCGAG: the “relative binding free energy” value is 0.08 kcal/mol.

As to AGATACACGTGCGGTG, the “relative binding free energy” value is -0.03 kcal/mol.

With TCAAACACGTGGGTGT, the “relative binding free energy” value was -0.15 kcal/mol.

For the sequence TTTTTCACGTGATGTT, the “relative binding free energy” value was 0.42 kcal/mol.

For TCGGACACGTGGTTGC, the “relative binding free energy” value amounted to 0.1 kcal/mol.

For the sequence TTTGTCACGTGGCGCA, the “relative binding free energy” value was found to be 0.05 kcal/mol.

Turning to TGCTTCACGTGGTGTT, the “relative binding free energy” value turned out to be 0.16 kcal/mol.

With AGTCTCACGTGGGCGA, the “relative binding free energy” value came out at 0.13 kcal/mol.

Regarding CGGTTCACGTGAAGCG, the “relative binding free energy” value was 0.45 kcal/mol.

For the sequence ATTTGCACGTGATTAA, the “relative binding free energy” value was 0.08 kcal/mol.

TTACTCACGTGAATTG: the “relative binding free energy” value was determined as 0.4 kcal/mol.

Take CTAGGCACGTGGCGTG: the “relative binding free energy” value was -0.28 kcal/mol.

Regarding TGTTACACGTGAGAAG, the “relative binding free energy” value worked out at 0.2 kcal/mol.

Regarding CGGGTCACGTGTTTGA, the “relative binding free energy” value worked out at 0 kcal/mol.

With GTGCTCACGTGGGTGC, the “relative binding free energy” value was -0.02 kcal/mol.

Turning to TTATTCACGTGAAAAA, the “relative binding free energy” value came to 0.38 kcal/mol.

Turning to GTACTCACGTGGTTTT, the “relative binding free energy” value amounted to 0.26 kcal/mol.

For ATGTTCACGTGCGGCA, the “relative binding free energy” value worked out at 0.19 kcal/mol.

ATTGGCACGTGACAGT: the “relative binding free energy” value was -0.05 kcal/mol.
